Measurements as given in PubChem BioAssay AID1347417 (National Center for Advancing Translational Sciences (NCATS), 2020).
In all, about 120,000 compounds went through this assay and about 5,300 (4.4%) were called active. Inconclusive means that the source gave no clear call. Such entries were picked first, then a sample of the others. The call rests on the fitted dose curve; in most records, active means well fitted inhibition curve with a large enough effect; inconclusive means small, poorly fitted or top-dose-only effect; inactive means no such curve, though single readings can be large or run the other way. Where the call is inconclusive, the potency comes from a doubtful curve fit.

Test: qHTS Primary assay for Inhibitors of Plasmodium falciparum Dd2 growth in vitro; further: nearly all actives have a fitted effect of over 65% in size
Conditions: P. falciparum Dd2 growth, SYBR Green, 72 h; series mostly up to 28.9 µM
Procedure, shortened: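 Readout: SYBR Green fluorescence, 485 nm excitation, 535 nm emission, after ~16 h lysis at 37C. Before that, Dd2-infected red cells (2.5% hematocrit) grew 72 h with compound, 29 uM top final concentration.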
Potency means the concentration at half of the fitted maximal effect; tags describe the fitted curve by direction and shape.

SMILES | Potency
CC1(CNCc2ccccc2)COc2ccc(C(=O)NCc3ccncc3)cc2N1 (stereo not given) | inconclusive: 5.01 µM [inhibitor, partial curve, poor fit]
Cc1ccc(NC(=O)N2CC3CCCN3c3ccccc32)c(C)c1 (stereo not given) | inconclusive: 17.8 µM [inhibitor, single point]
Cc1nc(-c2cnccn2)n(CC(=O)Nc2ccc(F)cc2)c(=O)c1C | inconclusive: 10 µM [inhibitor, single point]
N#Cc1ccc(C(=O)N2C[C@@H]3C[C@H](C2)c2c(-c4ccc(Cl)cc4)ccc(=O)n2C3)cc1 | inconclusive: 11.2 µM [inhibitor, partial curve, poor fit]
CNCc1ccccc1F | inactive
COC(=O)c1ccc(NC(=O)CC2Nc3cc(C)c(C)cc3NC2=O)cc1 (stereo not given) | active: 3.98 µM
Cc1cc(C)n(-c2nc3ccccc3nc2Nc2ccc(Cl)c(Cl)c2)n1 | inconclusive: 11.2 µM [inhibitor, partial curve, poor fit]
CC1=C[C@@H](CNC(=O)Nc2cccc(C#N)c2)[C@H](C(C)C)C[C@H]1CC(=O)NCc1ccccn1 | inconclusive: 6.31 µM [inhibitor, partial curve, poor fit]
COc1ccccc1NCc1cccn1-c1nnc(N2CCCCCC2)s1 | inconclusive: 11.2 µM [inhibitor, single point]
O=C(CCn1ccn2nc3c(c2c1=O)CCCC3)NC1CCCCCC1 | inconclusive: 17.8 µM [inhibitor, single point]
O=C(NCc1cccc(F)c1)c1cnc2c(c1)N(Cc1ccccc1)CCC2 | inactive
Cc1ccc(NC(=O)N2CCc3c(C(=O)NC(C)C)cccc32)cc1 | inconclusive: 3.98 µM [inhibitor, single point]
N#Cc1ccc(CN2CCC3(CC2)CNC(=O)c2ccccc2O3)cc1 | inactive
COc1cccc(C(=O)Nc2ccc3c(c2)CN(Cc2cccc(OC)c2OC)C(=O)C(C)O3)c1 (stereo not given) | inconclusive: 0.316 µM [inhibitor, full curve]
CCNc1nccc(N2CCC(CC(=O)N3CCN(c4ccccc4F)CC3)CC2)n1 | inconclusive: 20 µM [inhibitor, single point]
O=C1NCCCCCN(C(=O)c2ccsc2)[C@@H]2C[C@@H](C(=O)N3CCc4ccccc4C3)C[C@H]12 | inconclusive: 1.58 µM [inhibitor, full curve, poor fit]
CCc1cccc(NS(=O)(=O)c2ccc3c(c2)n(C)c(=O)c(=O)n3C)c1 | inconclusive: 10 µM [inhibitor, single point]
Cc1ccc(NC(=O)N2CCCC(Cn3c(C4CC4)nc4cccnc43)C2)c(C)c1 (stereo not given) | inactive
CC(C)N1CCC(CCN2C(=O)[C@H]3CN(S(=O)(=O)c4cn(C)cn4)C[C@H]3C2=O)CC1 | inactive
CC(=O)Nc1ccc(S(=O)(=O)N[C@H]2CO[C@H]3[C@@H]2OC[C@@H]3n2nnnc2Oc2ccc(-n3ccnc3)cc2)cc1 | inconclusive: 17.8 µM [inhibitor, single point]

SMILES | Potency
Fc1ccccc1-c1cc2c(cn1)CN(Cc1ccncc1)CCN2 | inactive
CCCN(C(=O)c1cc2c(=O)oc3ccccc3c2s1)c1cccc(Cl)c1 | inactive
O=C(CC1CCCN(c2cnn(CC3CC3)c(=O)c2)C1)NCc1ccccc1 (stereo not given) | inconclusive: 0.0708 µM [inhibitor, full curve, poor fit]
CCOC(=O)c1ccc(N2C(=O)c3[nH]nc(-c4ccc(OC)cc4)c3C2c2ccccc2Cl)cc1 (stereo not given) | inactive
CN(C)C(=O)c1cccnc1OC1CCN(CCc2ccccc2)CC1 | inconclusive: 1.41 µM [inhibitor, partial curve]
O=C(Cn1cc(C(=O)c2ccncc2)c(=O)c2cc(F)ccc21)Nc1ccc(Cl)cc1 | inconclusive: 0.0891 µM [inhibitor, full curve, poor fit]
COC(=O)C1=C(C)N=C2SC=C(CC(=O)NCc3cccc(F)c3)N2C1c1cccc(OC)c1 (stereo not given) | inconclusive: 0.891 µM [inhibitor, partial curve, poor fit]
CCNC(=O)Nc1ccc(OCC(=O)NCc2ccccc2)nc1 | inactive
CN(C)CCNC(=O)c1ccc2c(c1)N(Cc1ccccc1)C(=O)c1ccccc1S2(=O)=O | inconclusive: 10 µM [inhibitor, single point]
O=C(NCc1cccnc1)c1ccc2oc(-c3ccc(C(F)(F)F)cc3)nc2c1 | inconclusive: 17.8 µM [inhibitor, single point]
Cc1ccc(-n2nnnc2N2CCN(C(=O)Nc3ccc(C)c(F)c3)CC2)cc1C | inconclusive: 10 µM [inhibitor, partial curve]
O=C1CCN(Cc2ccc(C(F)(F)F)cc2)CCCC(c2nc(-c3cnccn3)no2)CCN1 (stereo not given) | inconclusive: 3.55 µM [inhibitor, partial curve]
N#Cc1cccc(-c2ccnc(N[C@H]3CO[C@H]4[C@@H]3OC[C@@H]4NC(=O)N3CCOCC3)n2)c1 | inactive
c1ccc(Oc2ccccc2-c2cc(-c3cn[nH]c3)c3cncn3c2)cc1 | inconclusive: 7.08 µM [inhibitor, partial curve, poor fit]
O=c1[nH]c(C2CCN(Cc3ccccc3)CC2)nc2ccc(F)cc12 | inconclusive: 10 µM [inhibitor, partial curve, poor fit]
CC(=O)Nc1ccc(S(=O)(=O)NC[C@@H]2C=C(C)[C@H](CC(=O)N3CCCC3)C[C@H]2C(C)C)cc1 | inconclusive: 12.6 µM [inhibitor, partial curve, poor fit]
N#Cc1ccc(C(=O)NCC(=O)N2CCCCCCNC(=O)CC2c2ccccc2)cc1 (stereo not given) | inconclusive: 17.8 µM [inhibitor, single point]
Cc1ccccc1NC(=O)c1cccc2c(=O)c3c([nH]c12)CCCC3 | inconclusive: 11.2 µM [inhibitor, single point]
C=CCNC(=O)C1CCN(C(=O)N2CC3CC(C2)[C@H]2CCCC(=O)N2C3)CC1 (stereo not given in full) | inactive
CCOC(=O)c1c(NC(=O)c2ccc(Br)cc2)sc2c1CCCC2 | inactive
